# Target: Recombinant heterodimeric HCV NS3/NS4A protease (strain 1a) (Hepatitis C virus genotype 1a, UniProt P27958)
# Assay: Spectrophotometric assay for HCV protease inhibitory activity
# Assay type: biochemical
# Details: chromogenic ester substrate, 30° C., pH 6.5, read-out: Ki*
# Excerpt: Assay for HCV Protease Inhibitory Activity:
# Spectrophotometric Assay: Spectrophotometric assay for the HCV serine protease can be performed on the inventive compounds by following the procedure described by R. Zhang et al, Analytical Biochemistry, 270 (1999) 268-275, the disclosure of which is incorporated herein by reference. The assay based on the proteolysis of chromogenic ester substrates is suitable for the continuous monitoring of HCV NS3 protease activity. The substrates are derived from the P side of the NS5A-NS5B junction sequence (Ac-DTEDWX(Nva), where X=A or P) whose C-terminal carboxyl groups are esterified with one of four different chromophoric alcohols (3- or 4-nitrophenol, 7-hydroxy-4-methyl-coumarin, or 4-phenylazophenol). Illustrated below are the synthesis, characterization and application of these novel spectrophotometric ester substrates to high throughput screening and detailed kinetic evaluation of HCV NS3 protease inhibitors.
# Protein concentrations are determined by the Biorad dye method using recombinant HCV protease standards previously quantified by amino acid analysis. Prior to assay initiation, the enzyme storage buffer (50 mM sodium phosphate pH 8.0, 300 mM NaCl, 10% glycerol, 0.05% lauryl maltoside and 10 mM DTT) is exchanged for the assay buffer (25 mM MOPS pH 6.5, 300 mM NaCl, 10% glycerol, 0.05% lauryl maltoside, 5 μM EDTA and 5 μM DTT) utilizing a Biorad Bio-Spin P-6 prepacked column.
# Spectra of Substrates and Products: Spectra of substrates and the corresponding chromophore products are obtained in the pH 6.5 assay buffer. Extinction coefficients are determined at the optimal off-peak wavelength in 1-cm cuvettes (340 nm for 3-Np and HMC, 370 nm for PAP and 400 nm for 4-Np) using multiple dilutions. The optimal off-peak wavelength is defined as that wavelength yielding the maximum fractional difference in absorbance between substrate and product (product OD−substrate OD)/substrate OD).
# Protease Assay: HCV protease assays are performed at 30° C. using a 200 μl reaction mix in a 96-well microtiter plate. Assay buffer conditions (25 mM MOPS pH 6.5, 300 mM NaCl, 10% glycerol, 0.05% lauryl maltoside, 5 μM EDTA and 5 μM DTT) are optimized for the NS3/NS4A heterodimer (D. L. Sali et al, ibid.)). Typically, 150 μl mixtures of buffer, substrate and inhibitor are placed in wells (final concentration of DMSO≦4% v/v) and allowed to preincubate at 30° C. for approximately 3 minutes. Fifty μls of prewarmed protease (12 nM, 30° C.) in assay buffer, is then used to initiate the reaction (final volume 200 μl).The plates are monitored over the length of the assay (60 minutes) for change in absorbance at the appropriate wavelength (340 nm for 3-Np and HMC, 370 nm for PAP, and 400 nm for 4-Np) using a Spectromax Plus microtiter plate reader equipped with a monochrometer (acceptable results can be obtained with plate readers that utilize cutoff filters). Proteolytic cleavage of the ester linkage between the Nva and the chromophore is monitored at the appropriate wavelength against a no enzyme blank as a control for non-enzymatic hydrolysis. The evaluation of substrate kinetic parameters is performed over a 30-fold substrate concentration range (˜6-200 μM). Initial velocities are determined using linear regression and kinetic constants are obtained by fitting the data to the Michaelis-Menten equation using non-linear regression analysis (Mac Curve Fit 1.1, K. Raner). Turnover numbers (kcat) are calculated assuming the enzyme is fully active.
row,SMILES,Ki [nM]
1,CCCC(NC(=O)[C@@H]1[C@@H]2[C@H](CN1C(=O)[C@@H](NC(=O)N[C@H](CN(C)c1c(C(C)(C)C)c(=O)c1=O)C(C)(C)C)C1(C)CCCCC1)C2(C)C)C(=O)C(=O)NC1CC1 (some centres unmarked) [drawing 254],8
2,C#CCCC(NC(=O)[C@@H]1[C@@H]2[C@H](CN1C(=O)[C@@H](NC(=O)N[C@H](CN(C)c1c(C(C)(C)C)c(=O)c1=O)C(C)(C)C)C1(C)CCCCC1)C2(C)C)C(=O)C(=O)NCC=C (some centres unmarked) [drawing 249],3
3,C#CCCC(NC(=O)[C@@H]1[C@@H]2[C@H](CN1C(=O)[C@@H](NC(=O)N[C@H](CN(C)c1c(C(C)(C)C)c(=O)c1=O)C1CCCCC1)C1CCCCC1)C2(C)C)C(=O)C(=O)NCC=C (some centres unmarked) [drawing 245],2.2
4,C=CCNC(=O)C(=O)C(CC1CC1)NC(=O)[C@@H]1[C@@H]2[C@H](CN1C(=O)[C@@H](NC(=O)N[C@H](CN(C)c1c(C(C)(C)C)c(=O)c1=O)C(C)(C)C)C1(C)CCCCC1)C2(C)C (some centres unmarked) [drawing 251],4.8
5,C=CCNC(=O)C(=O)C(CCC)NC(=O)[C@@H]1[C@@H]2[C@H](CN1C(=O)[C@@H](NC(=O)N[C@H](CN(C)c1c(C(C)(C)C)c(=O)c1=O)C(C)(C)C)C1CCCCC1)C2(C)C (some centres unmarked) [drawing 247],2.7

# Same assay, conditions: chromogenic ester substrate, 30° C., pH 6.5, read-out: Ki* Range
row,SMILES,Ki [nM]
1,CCc1c(N(C)C[C@@H](NC(=O)N[C@H](C(=O)N2C[C@H]3[C@@H]([C@H]2C(=O)NC(CC2CC2)C(=O)C(N)=O)C3(C)C)C(C)(C)C)C(C)(C)C)c(=O)c1=O (some centres unmarked) [compound 132],≤ 75
2,CC(C)(C)[C@H](NC(=O)N[C@H](CNc1c(C2CC2)c(=O)c1=O)C(C)(C)C)C(=O)N1C[C@H]2[C@@H]([C@H]1C(=O)NC(CC1CC1)C(=O)C(N)=O)C2(C)C (some centres unmarked) [compound 118],≤ 75
3,C=CCNC(=O)C(=O)C(CCC(F)(F)F)NC(=O)[C@@H]1[C@@H]2[C@H](CN1C(=O)[C@@H](NC(=O)N[C@H](CN(C)c1c(C(C)(C)C)c(=O)c1=O)C(C)(C)C)C1(C)CCCCC1)C2(C)C (some centres unmarked) [compound 123],≤ 75
4,C=CCNC(=O)C(=O)C(CC1CC1)NC(=O)[C@@H]1[C@@H]2[C@H](CN1C(=O)[C@@H](NC(=O)N[C@H](CN(C)c1c(C(C)(C)C)c(=O)c1=O)C(C)(C)C)C1(C)CCCCC1)C2(C)C (some centres unmarked) [compound 114],≤ 75
5,C=CCNC(=O)C(=O)C(CCC)NC(=O)[C@@H]1[C@@H]2[C@H](CN1C(=O)[C@@H](NC(=O)N[C@H](CN(C)c1c(C(C)C)c(=O)c1=O)C(C)(C)C)C(C)(C)C)C2(C)C (some centres unmarked) [compound 143],≤ 75
6,C=CCNC(=O)C(=O)C(CCCC)NC(=O)[C@@H]1[C@@H]2[C@H](CN1C(=O)[C@@H](NC(=O)N[C@H](CN(C)c1c(N(C)C)c(=O)c1=O)C1CCCCC1)C(C)(C)C)C2(C)C (some centres unmarked) [compound 110],≤ 75
7,C=CCNC(=O)C(=O)C(CCC)NC(=O)[C@@H]1[C@H]2CC(C)(C)O[C@H]2CN1C(=O)[C@@H](NC(=O)N[C@H](CN(C)c1c(N(C)C)c(=O)c1=O)C(C)(C)C)C1CCCCC1 (some centres unmarked) [compound 150],> 75
8,CC(C)(C)[C@H](NC(=O)N[C@H](CNc1c(C2CC2)c(=O)c1=O)C(C)(C)C)C(=O)N1C[C@H]2[C@@H]([C@H]1C(=O)NC(CC1CCC1)C(=O)C(N)=O)C2(C)C (some centres unmarked) [compound 124],≤ 75
9,C=CCNC(=O)C(=O)C(CCC)NC(=O)[C@@H]1[C@@H]2[C@H](CN1C(=O)[C@@H](NC(=O)N[C@H](CNc1c(N(C)C)c(=O)c1=O)C(C)(C)C)C(C)(C)C)C2(C)C (some centres unmarked) [compound 139],≤ 75
10,CCNC(=O)C(=O)C(CC1CC1)NC(=O)[C@@H]1[C@@H]2[C@H](CN1C(=O)[C@@H](NC(=O)N[C@H](CN(C)c1c(N(C)C)c(=O)c1=O)C(C)(C)C)C(C)(C)C)C2(C)C (some centres unmarked) [compound 147],≤ 75
11,C=CCNC(=O)C(=O)C(CCC)NC(=O)[C@@H]1[C@@H]2[C@H](CN1C(=O)[C@@H](NC(=O)N[C@H](CN(C)c1c(CC)c(=O)c1=O)C(C)(C)C)C1CCCCC1)C2(C)C (some centres unmarked) [compound 136],≤ 75
12,C=CCNC(=O)C(=O)C(CCC)NC(=O)[C@@H]1[C@@H]2[C@H](CN1C(=O)[C@@H](NC(=O)N[C@H](CN(C)c1c(C(C)(C)C)c(=O)c1=O)C(C)(C)C)C1CCCCC1)C2(C)C (some centres unmarked) [compound 104],≤ 75
13,CN(C[C@@H](NC(=O)N[C@H](C(=O)N1C[C@H]2[C@@H]([C@H]1C(=O)NC(CC1CC1)C(=O)C(N)=O)C2(C)C)C(C)(C)C)C1CCCCC1)c1c(C(C)(C)C)c(=O)c1=O (some centres unmarked) [compound 141],≤ 75
14,C=CCNC(=O)C(=O)C(CCC)NC(=O)[C@@H]1[C@@H]2[C@H](CN1C(=O)[C@@H](NC(=O)N[C@H](CN(C)c1c(C)c(=O)c1=O)C(C)(C)C)C(C)(C)C)C2(C)C (some centres unmarked) [compound 129],≤ 75
15,CN(C)c1c(N(C)C[C@@H](NC(=O)N[C@H](C(=O)N2C[C@H]3[C@@H]([C@H]2C(=O)NC(CC2CC2)C(=O)C(N)=O)C3(C)C)C(C)(C)C)C(C)(C)C)c(=O)c1=O (some centres unmarked) [compound 106],≤ 75
16,CN(C[C@@H](NC(=O)N[C@H](C(=O)N1C[C@H]2[C@@H]([C@H]1C(=O)NC(CC1CCC1)C(=O)C(N)=O)C2(C)C)C1CCCCC1)C(C)(C)C)c1c(C(C)(C)C)c(=O)c1=O (some centres unmarked) [compound 145],≤ 75
17,CN(Cc1ccccc1)c1c(N(C)C[C@@H](NC(=O)N[C@H](C(=O)N2C[C@H]3[C@@H]([C@H]2C(=O)NC(CC2CC2)C(=O)C(N)=O)C3(C)C)C(C)(C)C)C(C)(C)C)c(=O)c1=O (some centres unmarked) [compound 138],≤ 75
18,CC(C)(C)c1c(NC[C@@H](NC(=O)N[C@H](C(=O)N2C[C@H]3[C@@H]([C@H]2C(=O)NC(CC2CC2)C(=O)C(N)=O)C3(C)C)C(C)(C)C)C(C)(C)C)c(=O)c1=O (some centres unmarked) [compound 112],≤ 75
19,CN(C[C@@H](NC(=O)N[C@H](C(=O)N1C[C@H]2[C@@H]([C@H]1C(=O)NC(CC1CC1)C(=O)C(N)=O)C2(C)C)C(C)(C)C)C(C)(C)C)c1c(C2CC2)c(=O)c1=O (some centres unmarked) [compound 120],≤ 75
20,C#CCCC(NC(=O)[C@@H]1[C@@H]2[C@H](CN1C(=O)[C@@H](NC(=O)N[C@H](CN(C)c1c(N(C)C)c(=O)c1=O)C(C)(C)C)C(C)(C)C)C2(C)C)C(=O)C(=O)NCC=C (some centres unmarked) [compound 121],≤ 75
21,C=CCNC(=O)C(=O)C(CCC)NC(=O)[C@@H]1[C@@H]2[C@H](CN1C(=O)[C@@H](NC(=O)N[C@H](CN(C)c1c(C3(C)CC3)c(=O)c1=O)C(C)(C)C)C1CCCCC1)C2(C)C (some centres unmarked) [compound 142],≤ 75
22,CN(C)c1c(NC[C@@H](NC(=O)N[C@H](C(=O)N2C[C@H]3[C@@H]([C@H]2C(=O)NC(CC2CC2)C(=O)C(N)=O)C3(C)C)C(C)(C)C)C(C)(C)C)c(=O)c1=O (some centres unmarked) [compound 126],≤ 75
23,C=CCNC(=O)C(=O)C(CCC)NC(=O)[C@@H]1[C@@H]2[C@H](CN1C(=O)[C@@H](NC(=O)N[C@H](CN(C)c1c(C(C)(C)C)c(=O)c1=O)C(C)(C)C)C(C)(C)C)C2(C)C (some centres unmarked) [compound 140],≤ 75
24,CN(C[C@@H](NC(=O)N[C@H](C(=O)N1C[C@H]2[C@@H]([C@H]1C(=O)NC(CC1CC1)C(=O)C(N)=O)C2(C)C)C(C)(C)C)C(C)(C)C)c1c(C(C)(C)C)c(=O)c1=O (some centres unmarked) [compound 119],≤ 75
25,CC(C)(C)c1c(NCC2(NC(=O)N[C@H](C(=O)N3C[C@H]4[C@@H]([C@H]3C(=O)NC(CC3CC3)C(=O)C(N)=O)C4(C)C)C(C)(C)C)CCCCC2)c(=O)c1=O (some centres unmarked) [compound 149],> 75
26,CCCC(NC(=O)[C@@H]1[C@@H]2[C@H](CN1C(=O)[C@@H](NC(=O)N[C@H](CN(C)c1c(C(C)(C)C)c(=O)c1=O)C(C)(C)C)C1(C)CCCCC1)C2(C)C)C(=O)C(=O)NC1CC1 (some centres unmarked) [compound 128],≤ 75
27,C=CCNC(=O)C(=O)C(CCC)NC(=O)[C@@H]1[C@@H]2[C@H](CN1C(=O)[C@@H](NC(=O)N[C@H](CN(C)c1c(N(C)C)c(=O)c1=O)C1CCCCC1)C1CCCCC1)C2(C)C (some centres unmarked) [compound 113],≤ 75

# Reference: patent US7635694B2, “Cyclobutenedione-containing compounds as inhibitors of hepatitis C virus NS3 serine protease” (Schering Corporation, priority 2004, dated 2009)
